Reference: PMC4336329 (PLoS ONE, 2015)
Among all 310,000 compounds or so, about 14,000 (4.5%) showed an effect of 50% or more. Effects have a minus sign here. The list shows a part of the results.

These compounds were tested against human ether-à-go-go-related gene (hERG) potassium channel (human, UniProt Q12809) (assay: primary screen, population patch clamp on CHO cells stably expressing hERG).
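Also: peak tail current of the secondary pulse compared with the same well before compound.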

Chain of human ether-à-go-go-related gene (hERG) potassium channel (Q12809 whole entry, looked up): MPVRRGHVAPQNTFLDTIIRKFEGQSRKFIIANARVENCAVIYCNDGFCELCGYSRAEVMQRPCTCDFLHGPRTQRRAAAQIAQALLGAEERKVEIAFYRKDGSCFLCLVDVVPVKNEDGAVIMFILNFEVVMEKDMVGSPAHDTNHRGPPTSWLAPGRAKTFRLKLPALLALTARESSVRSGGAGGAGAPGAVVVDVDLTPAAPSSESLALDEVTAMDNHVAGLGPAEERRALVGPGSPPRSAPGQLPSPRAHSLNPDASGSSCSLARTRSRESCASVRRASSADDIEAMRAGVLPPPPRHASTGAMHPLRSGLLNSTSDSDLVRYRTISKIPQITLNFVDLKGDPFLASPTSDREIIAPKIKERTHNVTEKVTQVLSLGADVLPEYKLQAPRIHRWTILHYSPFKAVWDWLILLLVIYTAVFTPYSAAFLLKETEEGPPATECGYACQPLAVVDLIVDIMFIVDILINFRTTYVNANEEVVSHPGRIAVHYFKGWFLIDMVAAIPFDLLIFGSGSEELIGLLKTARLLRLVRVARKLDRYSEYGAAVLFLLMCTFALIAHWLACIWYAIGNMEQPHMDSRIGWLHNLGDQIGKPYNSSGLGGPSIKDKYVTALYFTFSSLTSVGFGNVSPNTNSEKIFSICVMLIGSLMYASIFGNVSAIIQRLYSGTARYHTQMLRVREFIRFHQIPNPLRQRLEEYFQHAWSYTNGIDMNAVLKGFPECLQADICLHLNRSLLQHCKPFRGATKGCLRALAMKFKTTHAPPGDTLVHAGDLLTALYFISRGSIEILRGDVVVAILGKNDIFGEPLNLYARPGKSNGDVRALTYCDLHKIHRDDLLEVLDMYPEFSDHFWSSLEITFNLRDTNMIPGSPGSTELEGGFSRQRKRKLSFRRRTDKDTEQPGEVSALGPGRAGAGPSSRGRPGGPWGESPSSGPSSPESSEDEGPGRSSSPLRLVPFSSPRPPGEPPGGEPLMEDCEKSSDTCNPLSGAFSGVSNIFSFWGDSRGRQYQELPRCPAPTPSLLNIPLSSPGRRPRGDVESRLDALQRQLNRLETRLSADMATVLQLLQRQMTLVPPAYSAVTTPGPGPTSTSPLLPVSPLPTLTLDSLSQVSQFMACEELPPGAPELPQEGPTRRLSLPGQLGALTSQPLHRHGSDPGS

Compound | hERG current change (%, negative = inhibition) at 10uM
CC1CCCN(C(=O)CCNS(=O)(=O)c2ccc3c(c2)c(=O)n(C)c(=O)n3C)C1 (stereo not shown) | -6.89%
COc1ccccc1N1CCN(C2CCCN(C(=O)c3ccsc3)C2)CC1 (stereo not shown) | -47.1%
O=C(/C=C/c1cc([N+](=O)[O-])ccc1OC(F)F)Nc1cccc2ccccc12 | 7.25%
Cc1c(C(=O)NCc2ccccc2)cnn1-c1ccccc1 | -2.6%
CCOc1ccc(N2C(=O)CC(NCC3CCCO3)C2=O)cc1 (stereo not shown) | 2.22%
COc1cc(C(C)=O)ccc1OCC(=O)OCCCOC(=O)COc1ccc(C(C)=O)cc1OC | 17.7%
COc1ccccc1OCC(=O)Nc1nnc(C2CCCC2)s1 | 8.21%
CC(=O)Nc1ccc(S(=O)(=O)N2CCN(C(=O)N3CCOCC3)CC2)cc1 | 8.32%
CCOC(=O)c1ccccc1NC(=O)CSc1ccc(-c2cccnc2)nn1 | -33.5%
Cc1ccc(CN2CCNC(=O)C2CC(=O)NCc2csc(C(C)C)n2)cc1 (stereo not shown) | -8.31%
CCCCN(C(=O)CSCc1ccc(C)cc1)c1c(N)n(CCC)c(=O)[nH]c1=O | -6.45%
CC(C)c1ccccc1NC(=O)COC(=O)c1cc([N+](=O)[O-])ccc1N1CCOCC1 | -27.2%
COc1ccc2cc(C(=O)N3CCCC(Nc4ccc(F)cc4)C3)n(C)c2c1 (stereo not shown) | -6.47%
O=C1NC(=O)/C(=C/c2ccc(OS(=O)(=O)c3ccc(F)cc3F)cc2)N1 | 10%
CN1CCC(N(C)C(=O)c2cc(=O)c3ccccc3o2)CC1 | 11.5%
COc1cc(-c2nnc(CSc3nnc4nc(C)cc(C)n34)o2)cc(OC)c1OC | 6.67%
CCOC(=O)CNC(=O)CSc1nc2nc(C)c(Br)cc2[nH]1 | 5.05%
CC(c1ccon1)N(C)C(=O)c1ccc(OC2CCN(C(=O)C3CC3)CC2)cc1 (stereo not shown) | -0.799%
CCOc1ccccc1N1CCN(C(=O)c2c(C)noc2C)CC1 | 1.78%
CC(=O)Nc1ccc(Nc2ncnc3c2cnn3-c2cccc(C)c2)cc1 | 10%
CN(C)c1c(N)[nH]c2c(c1=O)c(=O)n(C)c(=O)n2C | -7.83%
O=C1NC(c2ccccc2)=NC1(Nc1ccccn1)C(F)(F)F (stereo not shown) | -11%

Compound | hERG current change (%, negative = inhibition) at 10uM
Cc1ccc(OCC(=O)NNc2c3ccccc3nc3ccccc23)cc1 | 7.76%
O=C(CCS(=O)(=O)c1ccc(Br)cc1)NCc1cccs1 | -11.5%
COC(=O)C1=C(C(=O)OC)[C@@H]2N(C)c3ccc(OC)cc3[C@@]23C[C@@H](C(=O)OC)N=C3N1 | -22.9%
CC(=O)C1=C(C)NC(SCC(N)=O)=C(C#N)C1c1cccs1 (stereo not shown) | -2.53%
CCCCN(C(=O)c1ccco1)c1c(N)n(CCC)c(=O)[nH]c1=O | -4.19%
O=c1[nH]c(=S)n(-c2ccccc2)c(O)c1C=NCc1ccccn1 | -1.82%
O=C1CC(CC(=O)N/N=C/c2ccccc2[N+](=O)[O-])=NN1 | 21.6%
Cc1ccc2c(c1)C(=O)CC(c1ccc3c(c1)OCCO3)O2 (stereo not shown) | -3.68%
CS(=O)(=O)N(CC(=O)N1CCN(C(c2ccccc2)c2ccccc2)CC1)C1CCCCC1 | -5.65%
O=c1c2cn[nH]c2[nH]c(=S)n1-c1cccc(Cl)c1 | 24.4%
COc1ccc(C2SCC(C(=O)O)N2C(C)=O)cc1 (stereo not shown) | 18.7%
Cn1c(=O)n(C)c2cc(NS(C)(=O)=O)ccc21 | 1.86%
O=C1CC(c2ccc3c(c2)OCO3)c2cc3c(cc2N1)OCCO3 (stereo not shown) | 13.5%
Cc1cc(C)nc(NC(=O)CSc2nn(-c3ccccc3)c(=S)s2)n1 | -7.19%
COc1ccc(/C=N/N(C(C)=O)c2nc(-c3ccc(C)cc3)cs2)cc1 | -9.83%
O=C(CN1CCN(CN2C(=O)NC3(CCCCCC3)C2=O)CC1)Nc1ccc(F)cc1 | -12.8%
CC1CCCC(C)N1C(=O)Cc1ccccc1 (stereo not shown) | -12.1%
CCN1CCN(C(=O)CCn2c(=O)c3cccn3c3cccnc32)CC1 | 1.82%
CCOC(=O)/C=C1\CC(=O)Nc2nonc2N1 | -6.52%
CC1(C)CC(=O)C(N=Nc2cc(Cl)c(Cl)c(Cl)c2)=C(O)C1 | 8.16%
O=c1c2ccccc2oc2ccc(C#CC3(O)CCCCC3)cc12 | 0.05%
Cc1ccc(-c2noc(CN(C)C(=O)c3ccc(Br)o3)n2)cc1 | -18.7%

Compound | hERG current change (%, negative = inhibition) at 10uM
COc1cccc(Nc2nc3ccccc3nc2-n2nc(C)cc2C)c1 | 18.5%
COc1ccc(N(C(C)=O)S(=O)(=O)c2cccc3cccnc23)cc1 | -4.27%
COc1ccc(C(=O)Nc2ccc(S(=O)(=O)Nc3cc(C)nc(C)n3)cc2)cc1 | 20.2%
O=C(Cc1ccc(-n2c(=O)[nH]c3ccccc3c2=O)cc1)N1CCN(c2ccccc2)CC1 | 5.63%
CCOc1ccccc1C1C(C(=O)Nc2ccccc2OC)=C(C)Nc2nnnn21 (stereo not shown) | 4.75%
Cc1ccc(OCC(=O)N2CCN(S(=O)(=O)c3ccc(Cl)s3)CC2)cc1C | 3.16%
Cc1onc(-c2ccccc2Cl)c1C(=O)OCC(=O)c1ccc2c(c1)OCCO2 | 7.3%
CCn1nc(NC(=O)c2ccncc2)c2cc3cc(C)ccc3nc21 | 8.22%
CC(C)NS(=O)(=O)c1ccc(NC(=O)NC2CCCCC2)cc1 | 1.79%
CN(CCC#N)C(=O)CC(Cc1ccccc1)C1CCOC(C)(C)C1 (stereo not shown) | 3.94%
Cc1ccc(C(=O)Nc2ccc(N3CCN(C(=O)c4ccco4)CC3)cc2)cc1 | 10.4%
COc1cc(OC)cc(C(=O)NCC2CCCN(C(=O)c3csc(C)n3)C2)c1 (stereo not shown) | 10.4%
CC(=O)c1c(C)[nH]c(C(=O)CN2C(=O)NC(C)(c3ccc4c(c3)OCO4)C2=O)c1C (stereo not shown) | 2.4%
CCCC(=O)NC(c1ccc(OCC)cc1)c1ccc(OC)c(OC)c1 (stereo not shown) | -5.42%
O=C(CSc1nc2cc(Cl)ccc2s1)N1CCCc2ccccc21 | -5.54%
COc1ccc(CCN=c2c([N+](=O)[O-])nn(-c3cccc(C)c3)n2O)cc1OC | -34.1%
O=C1CCc2cc(S(=O)(=O)Nc3ccc(F)cc3)cc3c2N1CC3 | -0.534%
Cc1csc(NC(=O)CCc2ccc(S(=O)(=O)N3CCOCC3)cc2)n1 | -9.05%
O=C(Nc1ccc(S(=O)(=O)O)cc1)c1ccc2c(c1)S(=O)(=O)c1ccccc1C2=O | 16.1%
O=C(COC(=O)c1ccc(-c2ccc([N+](=O)[O-])cc2)o1)NC(=O)NC12CC3CC(CC(C3)C1)C2 | 1.93%
Cc1ccc(C)c(NC(=S)N(CCc2ccncc2)C(C)C)c1 | -42.1%
CCC(C)c1ccc(NC(=S)Nc2ccc(OC)cc2C)cc1 (stereo not shown) | -9.65%

Compound | hERG current change (%, negative = inhibition) at 10uM
CCCNCc1cc(OC)c(OCC(=O)Nc2ccccc2)cc1Br.Cl | -46.4%
O=C(/C=C/c1ccc(Cl)cc1Cl)NCCSCc1ccccc1 | 18.3%
COC(=O)CCC(=O)OC1(C)C(=O)C2=CN(CC(C)C)C(c3ccc(OC)cc3)=CC2=C(Br)C1=O (stereo not shown) | -8.17%
Cc1nn(C)cc1S(=O)(=O)Nc1ccc2c(c1)OCCO2 | 12.9%
Cc1ccc(Cl)cc1Nc1nc(-c2sc(NC(=O)C(C)(C)C)nc2C)cs1 | -14.4%
COc1ccc(N2CCN(C(=O)c3ccc(N(C)S(=O)(=O)c4ccc(C)cc4)cc3)CC2)cc1 | -45.8%
CC(NCC(=O)Nc1cc(S(=O)(=O)N2CCCCCC2)ccc1Cl)c1ccccc1.O=C(O)C(=O)O (stereo not shown) | -8.39%
S=C(Nc1ccc(N2CCOCC2)cc1)Nc1ccc2nc(-c3ccco3)c(-c3ccco3)nc2c1 | 15.8%
Cc1ccc2c(c1)N(C(C)C(=O)NCCc1ccccc1)C(=O)CO2 (stereo not shown) | 7.21%
O=c1[nH]c(SCCOc2cccc3ccccc23)nc2ccccc12 | 28.4%
CC(C)=C1C(=O)NN(c2ccc(C)c(Cl)c2)C1=O | 27.1%
Cc1cccc(N2CCN(C(=O)CCc3nc4ccccc4[nH]3)CC2C)c1 (stereo not shown) | -29.4%
CCCCc1nc2cc(C(=O)N3CCCCC3C(=O)OC)ccc2o1 (stereo not shown) | -3.84%
COc1c(Br)cc([N+](=O)[O-])c(OC)c1C(=O)NC(=O)Nc1nc(C)cc(C)n1 | -22.4%
CCc1cccc2c(C(=O)C(NCCOC)c3ccccc3)c[nH]c12 (stereo not shown) | 5.96%
CCOC(=O)c1c(C)[nH]c(C2=NNC(=Nc3ccc(OCC)cc3)SC2)c1C | 20%
COc1cccc(NS(=O)(=O)c2ccc3c(c2)NC(=O)C(C)C(=O)N3)c1 (stereo not shown) | 6.5%
CC(C)c1ccc(NC2CCCN(C(=O)CCN3Cc4ccccc4C3=O)C2)cc1 (stereo not shown) | -30.5%
O=C(NCCCSc1ccccc1)c1cnc(Cl)c(Cl)c1 | 4.09%
